Source: PubChem BioAssay AID504332 (National Center for Advancing Translational Sciences (NCATS), 2011)
In all, about 350,000 compounds went through this assay and about 31,000 (8.9%) were called active. This list was built around the results that the source calls inconclusive (neither active nor inactive); the mix of calls is not that of the screen. The call rests on the fitted dose curve; in most records, active means well fitted inhibition curve with a large enough effect; inconclusive means small, poorly fitted or top-dose-only effect; inactive means no such curve, though single readings can be large or run the other way. Potencies beside an inconclusive call are fits to weak or partial responses and may not hold up. Some structures have more than one record in an assay (separate samples or runs), and their calls can disagree.

These molecules were tested against Histone-lysine N-methyltransferase EHMT2 (Homo sapiens) (UniProt Q96KQ7) (assay: qHTS Assay for Inhibitors of Histone Lysine Methyltransferase G9a). Settings: G9a H3K9 monomethylation, AlphaScreen, 2 h; activity, negative = inhibition: at 59 µM (top of the series) unless noted.
Outline: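 Readings reflect AlphaScreen signal from monomethyl-H3K9 antibody detection. HMT at 20 nM; substrate b-H3K9 500 nM; cofactor SAM 20 uM; 2 h RT reaction; compounds tested as titrations in qHTS with 15 min preincubation.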
Further: nearly all actives have a fitted effect of over 75% in size.
On the % scale 0 is the no-effect control and ±100 the full control effect; potency means the concentration at half of the fitted maximal effect; tags describe the fitted curve by direction and shape.

Sequence of UniProt Q96KQ7 (Q96KQ7 whole entry, looked up): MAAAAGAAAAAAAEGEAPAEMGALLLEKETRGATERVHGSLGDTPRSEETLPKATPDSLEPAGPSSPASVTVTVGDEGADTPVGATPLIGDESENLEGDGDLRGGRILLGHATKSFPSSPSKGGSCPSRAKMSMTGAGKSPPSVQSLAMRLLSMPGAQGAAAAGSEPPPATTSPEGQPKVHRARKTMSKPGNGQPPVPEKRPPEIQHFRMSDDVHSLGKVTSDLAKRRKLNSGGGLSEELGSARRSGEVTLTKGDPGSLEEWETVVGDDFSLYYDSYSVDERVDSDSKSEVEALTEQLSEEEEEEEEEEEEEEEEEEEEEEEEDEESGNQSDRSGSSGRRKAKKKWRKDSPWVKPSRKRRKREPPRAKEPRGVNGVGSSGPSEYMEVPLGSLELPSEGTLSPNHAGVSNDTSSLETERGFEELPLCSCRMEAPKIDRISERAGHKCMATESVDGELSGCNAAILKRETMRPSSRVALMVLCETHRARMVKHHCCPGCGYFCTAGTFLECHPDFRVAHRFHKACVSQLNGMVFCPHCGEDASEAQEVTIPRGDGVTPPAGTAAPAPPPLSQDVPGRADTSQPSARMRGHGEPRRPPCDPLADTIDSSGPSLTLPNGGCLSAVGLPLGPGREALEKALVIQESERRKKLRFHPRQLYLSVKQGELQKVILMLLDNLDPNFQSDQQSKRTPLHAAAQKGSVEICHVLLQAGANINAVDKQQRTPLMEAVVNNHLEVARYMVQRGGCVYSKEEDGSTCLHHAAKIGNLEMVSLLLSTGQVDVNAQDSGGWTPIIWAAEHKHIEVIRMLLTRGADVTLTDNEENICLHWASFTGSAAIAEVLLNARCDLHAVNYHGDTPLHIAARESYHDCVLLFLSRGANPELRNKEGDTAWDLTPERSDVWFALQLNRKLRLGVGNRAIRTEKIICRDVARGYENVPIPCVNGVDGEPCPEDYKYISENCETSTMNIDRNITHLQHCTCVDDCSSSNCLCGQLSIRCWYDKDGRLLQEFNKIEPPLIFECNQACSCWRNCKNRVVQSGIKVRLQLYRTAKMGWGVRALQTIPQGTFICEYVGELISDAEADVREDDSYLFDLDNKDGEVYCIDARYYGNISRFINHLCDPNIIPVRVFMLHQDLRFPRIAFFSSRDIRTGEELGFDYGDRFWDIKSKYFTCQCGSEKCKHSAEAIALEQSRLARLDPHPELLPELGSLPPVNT

SMILES | Potency | activity, negative = inhibition
O=C(O)C1Cc2ccccc2N2CCCC12 (configuration not stated) | active: 39.8 µM | 
Cc1ccc2c(c1)C1CN(C)CCC1N2C(=O)c1ccc(Br)o1 (configuration not stated) | active: 79.4 µM | 
NC(=S)N/N=C/c1coc2ccccc2c1=O |  | inactive: 20.3%
COC(=O)c1ccc(-c2nc(-c3ccc(Br)o3)no2)cc1 | inconclusive: 50.1 µM [inhibitor, partial curve, poor fit] | 
CCCCC1(CCCC)C(=O)NC(=Nc2cccc(C)c2)NC1=O | inconclusive: 20 µM [inhibitor, single point] | 
CCCc1nc2ccccc2c(=O)n1-c1cccc(OC)c1 |  | inactive: 24.6% [at 102 µM]
CCCCN1C2CCC1CC(OC(c1ccc(F)cc1)c1ccc(F)cc1)C2 (configuration not stated) | inconclusive: 56.2 µM [inhibitor, partial curve] | 
CC1CCN(CC(=O)c2ccccc2Cl)CC1 | inconclusive: 10 µM [inhibitor, partial curve, poor fit] | 
Cc1ccccc1N1C(=O)NC(=O)/C(=C\c2cc(C)n(C)c2C)C1=O | inconclusive: 50.1 µM [inhibitor, partial curve] | 
CCCCn1c(O)c(C(C)=NCCN2CCCCC2)c(=O)[nH]c1=O | active: 28.2 µM | 
COc1ccc(CCN(C)Cc2ccc(F)cc2F)cc1OC | active: 10 µM | 
CC/C(=N\NC(=O)c1ccccc1O)c1c(O)n(Cc2ccccc2)c(=O)[nH]c1=O | inconclusive: 79.4 µM [inhibitor, partial curve, poor fit] | 
CCN(CC)c1ccc(N=Cc2c(O)n(-c3ccccc3)c(=O)[nH]c2=O)cc1 | inconclusive: 44.7 µM [inhibitor, partial curve, poor fit] | 
Clc1ccccc1CN1CCN(c2ccccc2)CC1 | inconclusive: 5.01 µM [inhibitor, single point] | 
CCCN1CCc2cccc3c2[C@H]1Cc1ccc(O)c(O)c1-3 | active: 1.68 µM | 
NC(N)=NOCCC(N)C(=O)O (configuration not stated) | active: 29.9 µM | inactive: 17.2% [at 12.7 µM]
CN(C)CCN(Cc1ccccc1)c1ccnc(N(C)C)c1C#N | active: 7.94 µM | 
O=C(Cc1ccccc1)N1CCN(Cc2ccccn2)CC1 | active: 4.47 µM | 
C[C@]12CC[C@@H]3c4ccc(OC(=O)N(CCCl)CCCl)cc4CC[C@H]3[C@@H]1CC[C@@H]2O | inconclusive: 2.82 µM [inhibitor, partial curve, poor fit] | 
O=C1CC(N2CCC(n3c(=O)[nH]c4ccccc43)CC2)C(=O)N1c1ccc(F)cc1 (configuration not stated) | inconclusive: 14.1 µM [inhibitor, full curve] | 
Clc1ccc(-c2nc3ccc(Cl)cn3c2CN2CCOCC2)cc1 | inconclusive: 56.2 µM [inhibitor, partial curve, poor fit] | 
c1ccc(C[n+]2ccccc2)cc1 |  | inactive: 16% [at 2.33 µM]
COCCN(CCOC)C(=O)CCn1c(=O)oc2ccccc21 | inconclusive: 20 µM [inhibitor, single point] | 

SMILES | Potency | activity, negative = inhibition
Cc1cccc([C@H](C)c2cnc[nH]2)c1C | inconclusive: 1.12 µM [inhibitor, full curve, poor fit] | 
CNC(C)Cc1ccccc1Sc1ccc(O)cc1 (configuration not stated) | inconclusive: 35.5 µM [inhibitor, single point] | 
CN1CCN(c2ccc([N+](=O)[O-])c(NCC3CCCO3)c2)CC1 (configuration not stated) | active: 28.2 µM | 
COc1ccc(O)c(CN2CCCC(C(=O)c3sccc3C)C2)c1 (configuration not stated) | active: 50.1 µM | 
COc1ccccc1CNCCc1ccc(F)cc1 |  | inactive: -12.5% [at 102 µM]
CCCCOP(=O)(c1ccc(N(C)C)cc1)C(Nc1ccccc1)c1ccccc1 (configuration not stated) | active: 44.7 µM | 
Nc1nc2ccc(Cl)cc2c2nc(-c3ccco3)nn12 | active: 2.51 µM | 
Cc1cccc(N2C(=O)NC(=O)C3(Cc4cc(C)ccc4N(C)C3)C2=O)c1 (configuration not stated) | active: 10 µM | 
CC(C)(Cc1c[nH]c2ccc(Cl)cc12)NCCOc1ccccc1OCC1CC1 | inconclusive: 17.8 µM [inhibitor, single point] | 
O=c1[nH]c(=O)n(Cc2ccccc2)c(O)c1/C=N/Nc1c(F)c(F)c(F)c(F)c1F | inconclusive: 79.4 µM [inhibitor, partial curve, poor fit] | 
CN1C[C@H](CO)C=C2c3cccc4[nH]cc(c34)C[C@@H]21 | inconclusive: 3.55 µM [inhibitor, partial curve, poor fit] | 
CN(C)c1ccc(/C=C2/C(=O)NC(=O)N(Cc3ccco3)C2=O)cc1 | inconclusive: 0.891 µM [inhibitor, full curve, poor fit] | 
COc1cccc(-c2nn3c(=O)cc(CN4CCN(C(=O)COc5ccccc5C)CC4)nc3s2)c1 |  | inactive: -3.92%
CN1CCN(c2cc(N3CCCCCC3)c(F)cc2[N+](=O)[O-])CC1 | inconclusive: 22.4 µM [inhibitor, partial curve, poor fit] | 
CC(=O)Nc1ccccc1C(=O)OCc1cccc(F)c1 |  | inactive: 51.7% [at 102 µM]
COc1ccc(/C=C2/C(=O)NC(=O)N(C3CCCCC3)C2=O)cc1CSc1ccccn1 | inconclusive: 22.4 µM [inhibitor, partial curve, poor fit] | 
Cc1cc(C=O)c(C)n1C(C)C | inconclusive: 50.1 µM [inhibitor, partial curve, poor fit] | 
CC(C)c1ccc(C2NCc3ccccc3-n3cccc32)cc1 (configuration not stated) | active: 44.7 µM | 
Cc1ccc(/C=C2\C(=O)NC(=S)N(c3ccc(F)cc3)C2=O)s1 | active: 6.31 µM | 
COc1ccc(CC2C(=O)NC(=O)N(c3ccccc3)C2=O)c(OC)c1 (configuration not stated) | inconclusive: 39.8 µM [inhibitor, partial curve, poor fit] | 
C/C(=N\Nc1cccc2ccccc12)c1c(O)n(Cc2ccccc2)c(=O)[nH]c1=O | active: 1.58 µM | 
CCc1ccc(-n2c(O)c(C(C)=O)c(=O)[nH]c2=O)cc1 (tested in a mixture with another compound) | inconclusive: 79.4 µM [inhibitor, single point] | 
O=C1NC(=O)N(c2ccc(Cl)cc2)C(=O)/C1=C/c1coc2ccc(O)cc2c1=O | active: 15.8 µM | 
